Results are given in words; binding and its absence hold for the method and conditions named. For part of these data: In cells and extracts the contact can be indirect. Some binding calls cover weakened binding; strength is not graded here. For part of these data: Sequences can lack the tags named with a protein.
Legend:
[1] = molecular target: T1, GST-tagged hRNase 1 (human) (UniProt P07998); assay: pull-down; GST-tagged hRNase 1 on glutathione magnetic beads incubated with lysate (1 mg) of transfected 293T cells at 4 °C for 6 h; WB; only the target purified
T1 sequence: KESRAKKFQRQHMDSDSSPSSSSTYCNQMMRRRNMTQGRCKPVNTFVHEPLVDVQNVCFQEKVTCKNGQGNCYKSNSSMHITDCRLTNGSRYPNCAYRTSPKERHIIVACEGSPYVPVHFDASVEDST

Sequences of proteins named here, by UniProt entry; tags and fusion partners are left off. A change or cut given only in a name is not applied to a line headed by its entry. Residues count along the entry.
UniProt P54764: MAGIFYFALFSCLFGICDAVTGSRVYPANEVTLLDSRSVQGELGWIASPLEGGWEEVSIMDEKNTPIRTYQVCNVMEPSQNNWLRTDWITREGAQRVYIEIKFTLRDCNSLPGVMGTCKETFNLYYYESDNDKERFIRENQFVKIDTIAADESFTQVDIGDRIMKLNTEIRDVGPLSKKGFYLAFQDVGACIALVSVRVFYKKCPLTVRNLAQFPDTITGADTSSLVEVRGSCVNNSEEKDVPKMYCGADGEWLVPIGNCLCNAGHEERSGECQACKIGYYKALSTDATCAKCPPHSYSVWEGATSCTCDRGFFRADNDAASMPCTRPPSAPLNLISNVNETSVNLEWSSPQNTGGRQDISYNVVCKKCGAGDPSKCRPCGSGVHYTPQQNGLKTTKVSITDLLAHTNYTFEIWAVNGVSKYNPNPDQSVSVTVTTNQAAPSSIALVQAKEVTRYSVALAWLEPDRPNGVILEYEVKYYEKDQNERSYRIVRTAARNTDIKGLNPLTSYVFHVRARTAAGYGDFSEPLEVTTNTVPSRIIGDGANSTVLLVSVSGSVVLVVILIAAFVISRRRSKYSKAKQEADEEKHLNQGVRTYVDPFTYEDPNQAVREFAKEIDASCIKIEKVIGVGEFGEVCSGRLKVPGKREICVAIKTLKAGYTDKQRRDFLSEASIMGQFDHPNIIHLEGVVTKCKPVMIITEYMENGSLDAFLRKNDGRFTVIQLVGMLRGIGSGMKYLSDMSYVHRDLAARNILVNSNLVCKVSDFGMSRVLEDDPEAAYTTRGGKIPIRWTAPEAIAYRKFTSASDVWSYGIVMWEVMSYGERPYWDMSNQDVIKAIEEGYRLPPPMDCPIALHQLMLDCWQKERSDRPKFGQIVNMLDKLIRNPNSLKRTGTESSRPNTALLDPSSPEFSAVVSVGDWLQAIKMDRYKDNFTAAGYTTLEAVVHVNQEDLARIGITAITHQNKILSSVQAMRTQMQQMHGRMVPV
EphA4 expressed in KPL4 cells with hRNase 1 knockout (KPL4-A4-KO-R1): residues 20-986 of P54764
purified N-terminal EphA4 chimera (N-EphA4-Fc): residues 20-547 of P54764
UniProt P03950, residues 25-147: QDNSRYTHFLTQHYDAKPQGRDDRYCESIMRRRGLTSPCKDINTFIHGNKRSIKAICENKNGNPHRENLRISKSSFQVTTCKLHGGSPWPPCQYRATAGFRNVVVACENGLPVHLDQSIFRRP

[2] = molecular target: endogenous EphA4 (human (endogenous in MCF7, BT-549, KPL4)) (UniProt P54764); assay: proximity ligation; Duolink in situ PLA; BT-549 and KPL4 cells treated for 30 min with CM from 293T stable transfectants; anti-EphA4 and anti-Flag antibodies
[3] = molecular target: purified N-terminal EphA4 chimera (N-EphA4-Fc) (UniProt P54764); assay: pull-down; in vitro binding assay; N-EphA4-Fc incubated with or without hRNase 1 purified from E. coli; protein G beads used for pull-down; both purified
[4] = molecular target: purified N-terminal EphA4 chimera (N-EphA4-Fc) (UniProt P54764); assay: pull-down; in vitro binding assay; recombinant hRNase 1 (HEK293) heat-denatured and incubated overnight at 37 °C without or with PNGase F, then incubated with N-EphA4-Fc or human IgG; both purified
[5] = molecular target: EphA4 expressed in KPL4 cells with hRNase 1 knockout (KPL4-A4-KO-R1) (human) (UniProt P54764); assay: proximity ligation; Duolink in situ PLA; KPL4-A4-KO-R1 cells treated with GST vector or GST-hRNase 1 proteins (WT, ΔN, ΔC) for 30 min; percentage of positive cells from a pool of 50 cells; only the binder purified

Q: Which binding [1] does the source give for “Myc-tagged EphA4 (from UniProt P54764 20-986) (receptor)” here?
A: binds

Q: Which binding [2] does the source give for “Flag-tagged hRNase 5 in conditioned medium of 293T-pCDH-hRNase 5 stable transfectants (from UniProt P03950 25-147) (enzyme)” here?
A: no binding

Q: How did the binding [1] turn out when “Myc-tagged EphA4-ECD (amino acids 1–547 of EphA4) (from UniProt P54764 20-547) (domain or fragment)” was run?
A: binds

Q: “Myc-tagged EphA4-ICD (amino acids 570–986 of EphA4) (from UniProt P54764 570-986) (domain or fragment)” was tested. Which binding [1] did it give?
A: no binding

B1: Flag-tagged hRNase 1 in conditioned medium of 293T-pCDH-R1 stable transfectants (enzyme, UniProt P07998 29-156)
chain: T1 sequence
Q: Which binding [2] does the source give for B1 here?
A: binds

B2: recombinant hRNase 1 protein purified from Escherichia coli (hRNase 1-Myc-His) (enzyme, UniProt P07998 29-156)
chain: T1 sequence
Q: How did the binding [3] turn out when B2 was run?
A: binds

B3: recombinant hRNase 1 pretreated with PNGase F (non-glycosylated hRNase 1) (enzyme, UniProt P07998 29-156)
chain: T1 sequence
modifications: N-linked glycans removed with PNGase F
Q: With B3 as the molecule, how does the binding [4] read?
A: binds

B4: GST-tagged hRNase 1 (enzyme, UniProt P07998 29-156)
chain: T1 sequence
Q: B4 was tested. Which binding [5] did it give?
A: binds

B5: GST-hRNase 1 deletion mutant of N-terminus (ΔN; amino acids 1–21 deletion) (domain or fragment, UniProt P07998 50-156)
chain: SSTYCNQMMRRRNMTQGRCKPVNTFVHEPLVDVQNVCFQEKVTCKNGQGNCYKSNSSMHITDCRLTNGSRYPNCAYRTSPKERHIIVACEGSPYVPVHFDASVEDST
Q: Which binding [5] does the source give for B5 here?
A: binds

From article PMC8119676, “Human ribonuclease 1 serves as a secretory ligand of ephrin A4 receptor and induces breast tumor initiation” (Nature Communications, 2021)
